Assay results taken from PubChem BioAssay AID463254 (National Center for Advancing Translational Sciences (NCATS), 2010).
The campaign covered roughly 330,000 compounds. About 40 (0.01%) were called active. Inconclusive results, whose numbers are uncertain, are shown with a selection of clear calls. The call rests on the fitted dose curve; in most records, active means well fitted inhibition curve with a large enough effect; inconclusive means small, poorly fitted or top-dose-only effect, or effect the other way; inactive means flat fitted curve, though single readings scatter. A potency beside an inconclusive call is a rough fit, not a confirmed value.

Molecular target: Ubiquitin carboxyl-terminal hydrolase 2 (Homo sapiens) (UniProt O75604)
Assay: qHTS Assay for Inhibitors of Ubiquitin-specific Protease USP2a Using CHOP2 as the Reporter;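 on activity change, negative = inhibition: plate controls were DMSO wells for no effect and full inhibition by NEM control for full effect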
Details: USP2 core, Ub-CHOP2 coupled fluorogenic reporter, 485/531; activity change, negative = inhibition: at 38.3 µM (top of the series)
Outline: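 USP2 core (10nM final) preincubated 30min RT with compound in 20mM Tris-HCl pH 8.0, 2mM CaCl2, 2mM beta-mercaptoethanol, 0.05% CHAPS; 25nM Ub-CHOP2 plus 25nM reporter substrate added, fluorescence (Ex485/Em531) read after 60min.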
Potency means the concentration at half of the fitted maximal effect; tags describe the fitted curve by direction and shape or compound fluorescence and quenching.

Sequence of UniProt O75604 (O75604 whole entry, looked up): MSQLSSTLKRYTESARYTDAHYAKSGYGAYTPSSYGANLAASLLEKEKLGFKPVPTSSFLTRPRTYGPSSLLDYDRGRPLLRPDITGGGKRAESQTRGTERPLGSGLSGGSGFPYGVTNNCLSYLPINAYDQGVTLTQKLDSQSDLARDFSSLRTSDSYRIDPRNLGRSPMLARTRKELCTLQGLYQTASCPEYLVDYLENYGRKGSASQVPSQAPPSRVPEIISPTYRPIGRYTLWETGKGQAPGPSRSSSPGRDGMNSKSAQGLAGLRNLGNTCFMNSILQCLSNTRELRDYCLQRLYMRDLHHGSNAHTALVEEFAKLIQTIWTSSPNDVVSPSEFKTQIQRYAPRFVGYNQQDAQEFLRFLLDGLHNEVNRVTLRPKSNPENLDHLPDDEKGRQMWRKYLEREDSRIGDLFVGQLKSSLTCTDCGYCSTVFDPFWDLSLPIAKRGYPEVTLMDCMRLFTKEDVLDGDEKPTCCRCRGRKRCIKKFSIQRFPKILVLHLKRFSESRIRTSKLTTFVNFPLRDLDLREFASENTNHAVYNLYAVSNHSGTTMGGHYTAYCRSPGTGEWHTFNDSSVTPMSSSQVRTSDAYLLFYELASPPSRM

Row | Compound | Potency | activity change, negative = inhibition
1 | CCN(CC)c1ccc2c(-c3ccc(S(=O)(=O)O)cc3S(=O)(=O)[O-])c3ccc(=[N+](CC)CC)cc-3oc2c1 | inconclusive: 11.2 µM [fluorescent, partial curve] | 
2 | Brc1ccc(C2=CC(c3ccco3)n3ncnc3N2)cc1 (configuration not stated) | inconclusive: 28.2 µM [fluorescent, single point] | 
3 | O=C(CSc1ccc(Br)c2cccc(Cl)c12)Nc1ccc(S(=O)(=O)Nc2nccs2)cc1 | inconclusive: 20 µM [falling, single point] | 
4 | COc1ccc(CNC(=O)COC(=O)c2cc(-c3ccco3)nc3ccccc23)cc1 | inconclusive: 28.2 µM [falling, single point] | 
5 | O=C(COC(=O)C1CCN(S(=O)(=O)c2cccs2)CC1)Nc1ccc(F)c(F)c1F |  | inactive: 0.991%
6 | O=C(N/N=C/c1cc(Cl)cc([N+](=O)[O-])c1O)NC12CC3CC(CC(C3)C1)C2 |  | inactive: 1.6%
7 | CC1=CC2=NC(=O)/C(=C/c3coc4ccc(Cl)cc4c3=O)C(=N)N2O1 | inconclusive: 11.2 µM [fluorescent, partial curve] | 
8 | CC(C)OC(=O)CC(=O)c1sc2nc3c(cc2c1N)CN(C)CC3 | inconclusive: 10 µM [fluorescent, partial curve] | 
9 | O=C(COc1ccccc1)NCC(c1ccco1)N1CCCCC1 (configuration not stated) |  | inactive: -2.81%
10 | CCOc1cc(/C=C2\CCCc3c2nc2ccccc2c3C(=O)O)ccc1OC | inconclusive: 11.2 µM [fluorescent, partial curve] | 
11 | O=C1CCCC2=C1C(c1ccco1)Nc1ccc3ccccc3c12 (configuration not stated) | inconclusive: 31.6 µM [falling, single point] | 
12 | Cc1ccc(C)c(S(=O)(=O)c2c(N)n(/N=C/c3ccco3)c3nc4ccccc4nc23)c1 | inconclusive: 28.2 µM [falling, single point] | 
13 | COCCn1c(CN(Cc2ccccc2)Cc2ccccc2)nc2c1c(=O)n(C)c(=O)n2C | inconclusive: 3.16 µM [falling, single point] | 
14 | C#CCOCCOCCOCCNc1nc(N2CCN(C(=O)CCCCCCCCCCNC(=O)Cn3cc(C[C@@H](C)O)nn3)CC2)nc(N2CCN(C(=O)CCCCCCCCCCNC(=O)[C@@H]([C@H](C)CC)n3cc(CCCCCN)nn3)CC2)n1 | inconclusive: 25.1 µM [falling, single point] | 
15 | O=C(c1ccc([N+](=O)[O-])cc1)N(Cc1ccc(Cl)cc1)N1C(=O)CCCC1=O | inconclusive: 5.01 µM [falling, single point] | 
16 | O=C(NCC(=O)N1CCN(c2ncccn2)CC1)c1ccc(F)cc1 |  | inactive: 4.09%
17 | N/C(=N\OC(=O)c1ccccc1)c1cccnc1 |  | inactive: 0.322%
